Assay results as given in the supplement of paper PMC4967469.

Tests used:
Experiment in all cases: Viability of human cancer cell lines after 72 h of drug (GDSC screen)
BX-795 = compound: O=C(NCCCNc1nc(Nc2cccc(NC(=O)N3CCCC3)c2)ncc1I)c1cccs1 [BX-795]; settings: top dose 5 µM; top dose inferred
Protocol: (§1)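 Human cancer cell lines in 384-well plates, medium with 10% serum, drug for 72 h over a 256-fold dose range (nine 2-fold or five 4-fold steps up to the top dose). Adherent lines were fixed and stained with the nucleic acid dye Syto60, suspension lines read with resazurin; signal relative to control wells, capped at 0 and 100%. One two-parameter sigmoid per drug and line, fitted in a mixed model over all curves with the slope shared within a line.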

SB-505124 = compound: Cc1cccc(-c2[nH]c(C(C)(C)C)nc2-c2ccc3c(c2)OCO3)n1 [SB-505124]; settings: top dose 10 µM; top dose inferred
Protocol: as §1

Tretinoin = compound: CC1=C(/C=C/C(C)=C/C=C/C(C)=C/C(=O)O)C(C)(C)CCC1 [Tretinoin]; settings: top dose 10 µM; top dose inferred
Protocol: as §1

GSK690693 = compound: CCn1c(-c2nonc2N)nc2c(C#CC(C)(C)O)ncc(OC[C@H]3CCCNC3)c21 [GSK690693]; settings: top dose 10.24 µM; top dose inferred
Protocol: as §1

UNC0638 = compound: COc1cc2c(NC3CCN(C(C)C)CC3)nc(C3CCCCC3)nc2cc1OCCCN1CCCC1 [UNC0638]
Protocol: as §1

PI-103 = compound: Oc1cccc(-c2nc(N3CCOCC3)c3oc4ncccc4c3n2)c1 [PI-103]; settings: top dose 10.24 µM
Protocol: as §1

WH-4-023 = compound: COc1ccc(N(C(=O)Oc2c(C)cccc2C)c2ccnc(Nc3ccc(N4CCN(C)CC4)cc3)n2)c(OC)c1 [WH-4-023]; settings: top dose 5.12 µM; top dose inferred
Protocol: as §1

[1] = top dose 20 µM, screen: GDSC drug entry 1236, top dose inferred
[2] = top dose 40 µM, screen: GDSC drug entry 245

| Cell Line | AUC (BX-795) | IC50 (BX-795) | AUC (SB-505124) | IC50 (SB-505124) | AUC (Tretinoin) | IC50 (Tretinoin) | AUC (GSK690693) | IC50 (GSK690693) | AUC (UNC0638; [1]) | IC50 (UNC0638; [1]) | AUC (UNC0638; [2]) | IC50 (UNC0638; [2]) | AUC (PI-103) | IC50 (PI-103) | AUC (WH-4-023) | IC50 (WH-4-023) |
| --- | --- | --- | --- | --- | --- | --- | --- | --- | --- | --- | --- | --- | --- | --- | --- | --- |
| HDLM-2 (Hodgkin lymphoma, suspension) | 0.835 | 3.21 µM | 0.978 | > 10 µM | 0.84 | 6.76 µM | 0.989 | > 10.2 µM | 0.831 | 12.4 µM | 0.796 | 18.4 µM | 0.986 | > 10.2 µM | 0.937 | > 5.12 µM |
| HOP-62 (lung adenocarcinoma, adherent) | 0.854 | 3.92 µM | 0.958 | > 10 µM | 0.987 | > 10 µM | 0.984 | > 10.2 µM | 0.736 | 5.88 µM | 0.677 | 7.79 µM | 0.662 | 1.8 µM | 0.588 | 0.557 µM |
| HSC-39 (stomach, suspension) | 0.721 | 1.19 µM | 0.968 | > 10 µM | 0.986 | > 10 µM | 0.903 | 10.2 µM | 0.821 | 9.55 µM | 0.99 | > 40 µM | 0.532 | 0.77 µM | 0.677 | 0.923 µM |
| HT (B-cell lymphoma, suspension) | 0.939 | > 5 µM | 0.976 | > 10 µM | 0.981 | > 10 µM | 0.866 | 7.95 µM | 0.802 | 8.94 µM | 0.69 | 8.08 µM | 0.488 | 0.597 µM | 0.913 | > 5.12 µM |
| HUTU-80 (digestive system, adherent) | 0.568 | 0.465 µM | 0.829 | 4.82 µM | 0.991 | > 10 µM | 0.889 | 8.16 µM | 0.976 | > 20 µM | 0.749 | 11.1 µM | 0.257 | 0.15 µM | 0.412 | 0.192 µM |
| IA-LM (large cell lung carcinoma, adherent) | 0.881 | > 5 µM | 0.901 | > 10 µM | 0.983 | > 10 µM | 0.904 | > 10.2 µM | 0.948 | > 20 µM | 0.859 | > 40 µM | 0.792 | 5.3 µM | 0.95 | > 5.12 µM |
| IMR-5 (neuroblastoma, adherent) | 0.982 | > 5 µM | 0.974 | > 10 µM | 0.973 | > 10 µM | 0.96 | > 10.2 µM | 0.785 | 7.13 µM | 0.667 | 6.68 µM | 0.564 | 0.93 µM | 0.916 | > 5.12 µM |
| IST-MEL1 (melanoma, adherent) | 0.889 | > 5 µM | 0.973 | > 10 µM | 0.95 | > 10 µM | 0.922 | > 10.2 µM | 0.647 | 3.48 µM | 0.703 | 10.6 µM | 0.427 | 0.389 µM | 0.848 | 4.96 µM |
| IST-SL1 (small cell lung carcinoma, semi-adherent) | 0.8 | 2.5 µM | 0.96 | > 10 µM | 0.986 | > 10 µM | 0.958 | > 10.2 µM | 0.615 | 2.61 µM | 0.5 | 2.49 µM | 0.388 | 0.313 µM | 0.914 | > 5.12 µM |
| IST-SL2 (small cell lung carcinoma, suspension) | 0.933 | > 5 µM | 0.975 | > 10 µM | 0.927 | > 10 µM | 0.861 | 8.58 µM | 0.755 | 6.71 µM | 0.979 | > 40 µM | 0.153 | 0.0552 µM | 0.697 | 1.14 µM |
| JJN-3 (haematopoietic neoplasm, suspension) | 0.797 | 1.89 µM | 0.988 | > 10 µM | 0.799 | 3.82 µM | 0.916 | > 10.2 µM | 0.851 | 11.3 µM | 0.749 | 10.9 µM | 0.332 | 0.24 µM | 0.993 | > 5.12 µM |
| JM1 (B-cell lymphoma, suspension) | 0.821 | 2.37 µM | 0.971 | > 10 µM | 0.77 | 3.28 µM | 0.838 | 5.56 µM | 0.939 | > 20 µM | 0.663 | 6.6 µM | 0.507 | 0.667 µM | 0.953 | > 5.12 µM |
| JVM-2 (lymphoid neoplasm, suspension) | 0.881 | > 5 µM | 0.951 | > 10 µM | 0.64 | 1.68 µM | 0.929 | > 10.2 µM | 0.634 | 3.19 µM | 0.747 | 15.4 µM | 0.906 | > 10.2 µM | 0.9 | > 5.12 µM |
| JVM-3 (lymphoid neoplasm, suspension) | 0.787 | 2.22 µM | 0.973 | > 10 µM | 0.885 | > 10 µM | 0.987 | > 10.2 µM | 0.752 | 6.73 µM | 0.658 | 6.92 µM | 0.937 | > 10.2 µM | 0.987 | > 5.12 µM |
| JiyoyeP-2003 (Burkitt lymphoma, suspension) | 0.928 | > 5 µM | 0.97 | > 10 µM | 0.913 | > 10 µM | 0.991 | > 10.2 µM | 0.83 | 10.5 µM | 0.739 | 10.9 µM | 0.739 | 2.78 µM | 0.946 | > 5.12 µM |
| KARPAS-45 (lymphoblastic leukaemia, suspension) | 0.599 | 0.557 µM | 0.973 | > 10 µM | 0.97 | > 10 µM | 0.507 | 0.667 µM | 0.632 | 2.69 µM | 0.439 | 1.76 µM | 0.303 | 0.2 µM | 0.884 | 3.93 µM |

A lower IC50 marks a more sensitive line; fits outside the tested doses are given as limits. For AUC the same curve is integrated over the 256-fold range of doses and scaled to a fraction; it is 1 without any effect and falls as sensitivity rises. For some of these results: The top dose, if marked as inferred, was calculated from the reported fits. For some of these results: An entry number marks a drug with two screens in the source, which often give different values.
